Laboratory results published in PubChem BioAssay AID1721 (National Center for Advancing Translational Sciences (NCATS), 2009).
About 1,100 (0.38%) of roughly 290,000 compounds were called active. The inconclusive results got no clear call from the source; some entries with a clear call stand among them for comparison. The call rests on the fitted dose curve; in most records, active means well fitted inhibition curve with a large enough effect; inconclusive means small, poorly fitted or top-dose-only effect, or another doubt; inactive means no such curve, though single readings can be large or run the other way. A potency beside an inconclusive call is a rough fit, not a confirmed value.

The compounds below were run against Pyruvate kinase (Leishmania mexicana) (UniProt Q27686) (assay: qHTS Assay for Inhibitors of Leishmania Mexicana Pyruvate Kinase (LmPK)). Details: purified LmPK, Kinase-Glo ATP luminescence, 1 h; series mostly up to 57.5 µM.
Sequence of UniProt Q27686 (Q27686 whole entry, looked up): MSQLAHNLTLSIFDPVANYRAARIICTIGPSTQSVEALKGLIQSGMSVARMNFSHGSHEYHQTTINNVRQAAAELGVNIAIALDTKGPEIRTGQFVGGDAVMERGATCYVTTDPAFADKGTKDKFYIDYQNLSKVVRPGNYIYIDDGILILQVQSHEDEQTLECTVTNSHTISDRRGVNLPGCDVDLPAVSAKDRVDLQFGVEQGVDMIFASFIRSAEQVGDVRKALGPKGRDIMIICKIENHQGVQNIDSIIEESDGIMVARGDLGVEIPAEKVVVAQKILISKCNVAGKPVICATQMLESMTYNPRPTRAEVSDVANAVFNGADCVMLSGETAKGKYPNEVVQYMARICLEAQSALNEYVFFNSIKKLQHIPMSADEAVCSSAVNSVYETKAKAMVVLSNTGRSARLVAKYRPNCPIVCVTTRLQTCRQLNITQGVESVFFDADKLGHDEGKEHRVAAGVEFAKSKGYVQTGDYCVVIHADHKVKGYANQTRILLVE
Procedure, shortened: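 0.1 nM LmPK, 0.5 mM PEP, 0.1 mM ADP; 50 mM imidazole pH 7.2, 7 mM MgCl2, 50 mM KCl; 1 h RT. Kinase-Glo luminescence readout, normalized to no-enzyme (full inhibition) and uninhibited wells.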
Potency means the concentration at half of the fitted maximal effect; tags describe the fitted curve by direction and shape.

Row | SMILES | Potency
1 | O=c1[nH]c(CCl)nc2cc(-c3ccc(Cl)cc3)sc12 | inconclusive: 20 µM [falling, single point]
2 | COc1ccccc1N1C(=O)C=C(Sc2nc(C)cc(C)n2)C1=O | inconclusive: 15.8 µM [falling, partial curve]
3 | O=C(NCC1CCCO1)c1sc(=S)n2c1[nH]c(=O)c1ccc(C(=O)N3CCCCC3)cc12 (configuration not stated) | active: 20 µM
4 | c1ccc(-c2noc(-c3cccnc3)n2)cc1 | inconclusive: 25.1 µM [falling, partial curve]
5 | Cc1cccc(NC(=O)c2cc3ccccc3o2)c1 | active: 14.1 µM
6 | CCC(=O)NC1=C(Cl)C(=O)C(NC(=O)CC)=C(Cl)C1=O | inconclusive: 2 µM [falling, partial curve]
7 | CCc1ccccc1-n1c(-c2ccncc2)n[nH]c1=S | active: 12.6 µM
8 | Cc1cccc(-c2nc(CS(=O)CC(=O)NC3CCCCC3)c(C)o2)c1 (configuration not stated) | inactive
9 | O=C(CSC(=S)N1CCOCC1)c1ccccc1 | inconclusive: 14.1 µM [falling, partial curve]
10 | O=C(Nc1ccc2c(c1)CCC2)c1cnccn1 | inconclusive: 14.1 µM [falling, partial curve]
11 | Cc1sc2ncnc(N[C@@H](Cc3c[nH]c4ccccc34)C(=O)O)c2c1C | inconclusive: 28.2 µM [falling, single point]
12 | S=c1[nH]nc(-c2cc3ccccc3o2)n1Cc1ccccc1 | inconclusive: 25.1 µM [falling, single point]
13 | CC(=O)c1c(C)[nH]c(C(=O)OCc2ccc([N+](=O)[O-])cc2)c1C | inactive
14 | O=[N+]([O-])c1cccc(C=Nc2cccc3ccccc23)c1O | inconclusive: 39.8 µM [falling, partial curve]
15 | Cc1nc2sc(-c3ccccc3)nn2c(=O)c1Br | inconclusive: 12.6 µM [falling, partial curve]
16 | O=C(Cc1c(F)cccc1Cl)NNC(=O)Nc1ccc2c(c1)OCO2 | inactive
17 | COc1cc(N=Nc2ccccc2C(=O)O)ccc1O | inactive
18 | O=c1[nH]c(Nc2ccccc2)cc2ccccc12 | inconclusive: 22.4 µM [falling, partial curve]
19 | N/C(=N\OC(=O)CCC1CCCC1)c1ccccn1 | inconclusive: 15.8 µM [falling, partial curve]
20 | O=C(CSc1n[nH]c(-c2ccccc2)n1)N1CCCC1 | inactive
21 | COc1ccc(C(C)=O)cc1CC(C(=O)c1ccccc1)N(C)C (configuration not stated) | inactive
22 | CN(c1ccc(C(=O)NCCc2ccccc2)cc1)S(C)(=O)=O | inconclusive: 11.2 µM [falling, partial curve]
23 | CCN(C(=O)CSc1nc2cc(S(=O)(=O)N(CC)CC)ccc2o1)C1CCS(=O)(=O)C1 (configuration not stated) | inactive
24 | COc1ccc(O)c(N)c1 | inconclusive: 12.6 µM [falling, partial curve]
25 | COC(=O)[C@H](C)NC(=O)Nc1ccc(OC)c(OC)c1 | inactive
26 | CN=c1scc(C)n1/N=C/c1ccc(O)c(O)c1O | inconclusive: 28.2 µM [falling, single point]

Row | SMILES | Potency
27 | Cc1ccc(C(=O)c2ccccc2C(=O)OCC(=O)Nc2ccc(SC(F)F)cc2)cc1 | inactive
28 | Cc1c(C(=O)OCC(=O)N2c3ccccc3CC2C)oc2ccccc12 (configuration not stated) | inactive
29 | S=c1[nH]nc(-c2ccccc2)n1C1C=CCCC1 (configuration not stated) | active: 2.51 µM
30 | O=C(N/N=C/c1cc2c(cc1Br)OCO2)c1ccccn1 | inconclusive: 2.24 µM [falling, full curve]
31 | S=C(Nc1ccccc1)c1ccccn1 | inconclusive: 31.6 µM [falling, single point]
32 | CCOc1ccc(C(=O)Nc2cc(C)ccn2)cc1 | inconclusive: 14.1 µM [falling, partial curve]
33 | Cc1occc1C(=O)N/N=C/c1cccnc1 | inconclusive: 25.1 µM [falling, partial curve]
34 | O=C(Cn1ncc2c3ccccc3n(Cc3ccc(Cl)cc3)c2c1=O)NCCCN1CCCC1=O | inactive
35 | Cc1ccccc1C(=O)Nc1ccc(Cl)cn1 | inconclusive: 14.1 µM [falling, partial curve]
36 | C/C(=N\Nc1nc(-c2ccccc2)cs1)c1cccs1 | inactive
37 | COc1cccc(CNC(=O)CCC2CCCN(C(=O)c3cc4ccccc4o3)C2)c1 (configuration not stated) | inconclusive: 17.8 µM [falling, partial curve]
38 | O=C(Nc1ccc2c(c1)OCCO2)c1ccc(Br)o1 | inconclusive: 28.2 µM [falling, partial curve]
39 | C/C(=N\OC(=O)c1ccc(F)cc1)c1nccs1 | inconclusive: 12.6 µM [falling, partial curve]
40 | Fc1ccc(/C=N/Nc2nccnc2Cl)cc1 | inconclusive: 17.8 µM [falling, partial curve]
41 | Nc1nc(Nc2ccc(Cl)cc2)nc2ccccc12 | active: 17.8 µM
42 | Cc1ccc(C)c(NC(=O)CCCCCCCCCCC2COCCO2)c1 (configuration not stated) | inactive
43 | Cc1ccc(C(=O)O/N=C(\N)c2ccccn2)c(Cl)c1 | inconclusive: 7.08 µM [falling, single point]
44 | Fc1cccc(F)c1/C=C/c1ccc2ccccc2n1 | active: 8.91 µM
45 | O=C(Nc1nsc(-c2ccccc2)n1)c1cccs1 | inconclusive: 28.2 µM [falling, single point]
46 | O=C(O)C1=C[C@@H](C2CC2)C[C@@H](OCc2ccc(CO)cc2)O1 | inactive
47 | CCOc1ccc(/C=C/C(=O)c2c(O)cc(C)oc2=O)cc1 | inconclusive: 25.1 µM [falling, partial curve]
48 | Cc1c(-n2cc(C(=O)c3cc(Cl)ccc3O)cc(C#N)c2=O)c(=O)n(-c2ccccc2)n1C | inactive
49 | Cc1ccc(C)c2c1cc(C)c1nnc(SCC(=O)c3cccs3)n12 | inconclusive: 39.8 µM [falling, single point]
50 | c1ccc(-c2noc(-c3ccc4c(c3)OCO4)n2)nc1 | active: 3.16 µM
51 | O=C(CC(SCCO)c1ccc2c(c1)OCO2)c1ccco1 (configuration not stated) | inconclusive: 31.6 µM [falling, single point]
52 | S=c1[nH]ncn1/N=C/c1ccc(N2CCOCC2)cc1 | inconclusive: 28.2 µM [falling, single point]
